Results from paper PMC11551953 (2024).

Biological target: bovine serum albumin (BSA), wild type (bovine, UniProt P02769)
Chain of UniProt P02769 (P02769 25-607): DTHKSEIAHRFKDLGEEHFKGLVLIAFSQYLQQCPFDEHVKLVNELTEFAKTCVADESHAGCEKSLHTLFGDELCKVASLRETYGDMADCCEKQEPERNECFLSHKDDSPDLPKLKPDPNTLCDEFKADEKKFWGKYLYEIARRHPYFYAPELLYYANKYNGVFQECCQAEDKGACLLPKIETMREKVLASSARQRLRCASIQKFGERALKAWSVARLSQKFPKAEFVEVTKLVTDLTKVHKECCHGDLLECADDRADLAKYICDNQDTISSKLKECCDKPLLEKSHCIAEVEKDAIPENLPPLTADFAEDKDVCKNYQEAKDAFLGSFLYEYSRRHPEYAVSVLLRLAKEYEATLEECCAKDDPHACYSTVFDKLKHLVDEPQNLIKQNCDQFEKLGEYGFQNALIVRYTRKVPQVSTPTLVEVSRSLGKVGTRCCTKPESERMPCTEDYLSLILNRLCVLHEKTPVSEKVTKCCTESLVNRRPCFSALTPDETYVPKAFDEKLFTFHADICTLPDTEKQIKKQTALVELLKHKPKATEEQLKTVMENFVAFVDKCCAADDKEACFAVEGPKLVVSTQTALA

B1: GFP(ELL)4 (designed binder)
chain: MELLELLELLELLAFNSHNVYITADKQKNGIKVNFTVRHNVEDGSVQLADHYQQNTPIGDGPVLLPDNHYLSTQTVLSKDPNEKRDHMVLHEYVNAAGITHGMDELYKGGSGGTMSKGEELFTGVVPILVELDGDVNGHKFSVRGEGEGDATNGKLTLKFICTTGKLPVPWPTLVTTLSYGVQCFSRYPDHMKQHDFFKSAMPEGYVQERTISFKDDGTYKTRAVVKFEGDTLVNRIELKGTDFKEDGNILGHKLEYN
Kd: 141 µM
